# Reference: the supplement of paper PMC8728848
# The other results are listed elsewhere or left out.
# B1: CrataBL (Crataeva tapia), C0HJA4 (protein)
# chain: AILTGVPYYILPSTSRAGFSPDNLRKNTSQLSCPLDLITQLRFPRRIGVPVIFTPQNSSLKVVPLSHNLNIHTCSDLWFCPESKIWTVKSSLTHGGSVVTTGGTFRSLGSWFRIERHGDSYKLVHCPRGSTPCRDVGIETVGGGGRRYLAPRDRPLAVRFTRASG
# Tests used:
# Assay in all cases: glycan array binding signal (z-score within array); higher = stronger binding
# Conditions in all cases: glycan notation: IUPAC condensed, linker removed
# [1] = molecular target: Gal(b1-3)GlcNAc(b1-6)GalNAc
# Method in brief: (§1)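 Glycan array binding is given as a within-array Z-score, which can be read as non-binding when negative. The arrays, 3228 of them, came from the Consortium for Functional Glycomics database and were retained only where the protein sequence was available. Z-scores were averaged across arrays of the same protein sequence at different concentrations or buffers and across linkers.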
# [2] = molecular target: Gal(b1-3)GlcNAc(b1-6)[Gal(b1-3)]GalNAc
# Method in brief: as §1
# [3] = molecular target: Gal(b1-3)GlcNAc6S
# Method in brief: as §1
# [4] = molecular target: Gal(b1-3)[Fuc(a1-4)]GlcNAc
# Method in brief: as §1
# [5] = molecular target: Gal(b1-3)[Fuc(a1-4)]GlcNAc(b1-2)Man
# Method in brief: as §1
# [6] = molecular target: Gal(b1-3)[Fuc(a1-4)]GlcNAc(b1-2)Man(a1-3)[Gal(b1-3)[Fuc(a1-4)]GlcNAc(b1-2)Man(a1-6)]Man(b1-4)GlcNAc(b1-4)[Fuc(a1-6)]GlcNAc
# Method in brief: as §1
# [7] = molecular target: Gal(b1-3)[Fuc(a1-4)]GlcNAc(b1-3)Gal(b1-3)[Fuc(a1-4)]GlcNAc
# Method in brief: as §1
# [8] = molecular target: Gal(b1-3)[Fuc(a1-4)]GlcNAc(b1-3)Gal(b1-4)[Fuc(a1-3)]GlcNAc
# Method in brief: as §1
# [9] = molecular target: Gal(b1-3)[Fuc(a1-4)]GlcNAc(b1-6)GalNAc
# Method in brief: as §1
# [10] = molecular target: Gal(b1-3)[GlcNAc(b1-6)]GalNAc
# Method in brief: as §1
# [11] = molecular target: Gal(b1-3)[Neu5Ac(a2-6)]GalNAc
# Method in brief: as §1
# [12] = molecular target: Gal(b1-3)[Neu5Ac(a2-6)]GlcNAc(b1-4)Gal(b1-4)Glc
# Method in brief: as §1
# [13] = molecular target: Gal(b1-3)[Neu5Ac(b2-6)]GalNAc
# Method in brief: as §1
# [14] = molecular target: Gal(b1-4)Gal
# Method in brief: as §1
# [15] = molecular target: Gal(b1-4)GalNAc(a1-3)[Fuc(a1-2)]Gal(b1-4)GlcNAc
# Method in brief: as §1
# [16] = molecular target: Gal(b1-4)GalNAc(b1-3)[Fuc(a1-2)]Gal(b1-4)GlcNAc
# Method in brief: as §1
# [17] = molecular target: Gal(b1-4)Glc
# Method in brief: as §1
# [18] = molecular target: Gal(b1-4)Glc6S
# Method in brief: as §1
# [19] = molecular target: Gal(b1-4)GlcNAc
# Method in brief: as §1
# [20] = molecular target: Gal(b1-4)GlcNAc(a1-6)Gal(b1-4)GlcNAc
# Method in brief: as §1
# [21] = molecular target: Gal(b1-4)GlcNAc(b1-2)Man
# Method in brief: as §1
# [22] = molecular target: Gal(b1-4)GlcNAc(b1-2)Man(a1-3)Man(b1-4)GlcNAc(b1-4)GlcNAc
# Method in brief: as §1
# [23] = molecular target: Gal(b1-4)GlcNAc(b1-2)Man(a1-3)[Gal(b1-4)GlcNAc(b1-2)Man(a1-6)]Man(b1-4)GlcNAc(b1-4)GlcNAc
# Method in brief: as §1
# [24] = molecular target: Gal(b1-4)GlcNAc(b1-2)Man(a1-3)[Gal(b1-4)GlcNAc(b1-2)Man(a1-6)]Man(b1-4)GlcNAc(b1-4)[Fuc(a1-6)]GlcNAc
# Method in brief: as §1
# [25] = molecular target: Gal(b1-4)GlcNAc(b1-2)Man(a1-3)[Gal(b1-4)GlcNAc(b1-2)Man(a1-6)][Gal(b1-4)GlcNAc(b1-4)]Man(b1-4)GlcNAc(b1-4)[Fuc(a1-6)]GlcNAc
# Method in brief: as §1
# [26] = molecular target: Gal(b1-4)GlcNAc(b1-2)Man(a1-3)[Gal(b1-4)GlcNAc(b1-2)Man(a1-6)][GlcNAc(b1-4)]Man(b1-4)GlcNAc(b1-4)[Fuc(a1-6)]GlcNAc
# Method in brief: as §1
# [27] = molecular target: Gal(b1-4)GlcNAc(b1-2)Man(a1-3)[GlcNAc(b1-2)Man(a1-6)]Man(b1-4)GlcNAc(b1-4)GlcNAc
# Method in brief: as §1
# [28] = molecular target: Gal(b1-4)GlcNAc(b1-2)Man(a1-3)[GlcNAc(b1-4)][Gal(b1-4)GlcNAc(b1-2)Man(a1-6)]Man(b1-4)GlcNAc(b1-4)GlcNAc
# Method in brief: as §1
# [29] = molecular target: Gal(b1-4)GlcNAc(b1-2)Man(a1-3)[Man(a1-6)]Man(b1-4)GlcNAc(b1-4)GlcNAc
# Method in brief: as §1
# [30] = molecular target: Gal(b1-4)GlcNAc(b1-2)Man(a1-6)Man(b1-4)GlcNAc(b1-4)GlcNAc
# Method in brief: as §1
# [31] = molecular target: Gal(b1-4)GlcNAc(b1-2)Man(a1-6)[GlcNAc(b1-2)Man(a1-3)]Man(b1-4)GlcNAc(b1-4)GlcNAc
# Method in brief: as §1
# [32] = molecular target: Gal(b1-4)GlcNAc(b1-2)Man(a1-6)[Man(a1-3)]Man(b1-4)GlcNAc(b1-4)GlcNAc
# Method in brief: as §1
# [33] = molecular target: Gal(b1-4)GlcNAc(b1-2)[Gal(b1-4)GlcNAc(b1-4)]Man(a1-3)[Gal(b1-4)GlcNAc(b1-2)Man(a1-6)]Man(b1-4)GlcNAc(b1-4)GlcNAc
# Method in brief: as §1
# [34] = molecular target: Gal(b1-4)GlcNAc(b1-2)[Gal(b1-4)GlcNAc(b1-4)]Man(a1-3)[Gal(b1-4)GlcNAc(b1-2)[Gal(b1-4)GlcNAc(b1-6)]Man(a1-6)]Man(b1-4)GlcNAc(b1-4)GlcNAc
# Method in brief: as §1
# [35] = molecular target: Gal(b1-4)GlcNAc(b1-2)[Gal(b1-4)GlcNAc(b1-4)]Man(a1-3)[GlcNAc(b1-4)][Gal(b1-4)GlcNAc(b1-2)Man(a1-6)]Man(b1-4)GlcNAc(b1-4)GlcNAc
# Method in brief: as §1
# [36] = molecular target: Gal(b1-4)GlcNAc(b1-2)[Gal(b1-4)GlcNAc(b1-4)]Man(a1-3)[GlcNAc(b1-4)][Gal(b1-4)GlcNAc(b1-2)[Gal(b1-4)GlcNAc(b1-6)]Man(a1-6)]Man(b1-4)GlcNAc(b1-4)GlcNAc
# Method in brief: as §1
# [37] = molecular target: Gal(b1-4)GlcNAc(b1-2)[Gal(b1-4)GlcNAc(b1-6)]Man(a1-6)[Gal(b1-4)GlcNAc(b1-2)Man(a1-3)]Man(b1-4)GlcNAc(b1-4)GlcNAc
# Method in brief: as §1
# [38] = molecular target: Gal(b1-4)GlcNAc(b1-2)[Gal(b1-4)GlcNAc(b1-6)]Man(a1-6)[Gal(b1-4)GlcNAc(b1-2)Man(a1-3)]Man(b1-4)GlcNAc(b1-4)[Fuc(a1-6)]GlcNAc
# Method in brief: as §1
# [39] = molecular target: Gal(b1-4)GlcNAc(b1-2)[Gal(b1-4)GlcNAc(b1-6)]Man(a1-6)[GlcNAc(b1-4)][Gal(b1-4)GlcNAc(b1-2)Man(a1-3)]Man(b1-4)GlcNAc(b1-4)GlcNAc
# Method in brief: as §1
# [40] = molecular target: Gal(b1-4)GlcNAc(b1-2)[Gal(b1-4)GlcNAc(b1-6)]Man(a1-6)[GlcNAc(b1-4)][Gal(b1-4)GlcNAc(b1-2)[Gal(b1-4)GlcNAc(b1-4)]Man(a1-3)]Man(b1-4)GlcNAc(b1-4)[Fuc(a1-6)]GlcNAc
# Method in brief: as §1
# [41] = molecular target: Gal(b1-4)GlcNAc(b1-3)Gal(b1-3)GalNAc
# Method in brief: as §1
# [42] = molecular target: Gal(b1-4)GlcNAc(b1-3)Gal(b1-3)GlcNAc
# Method in brief: as §1
# [43] = molecular target: Gal(b1-4)GlcNAc(b1-3)Gal(b1-4)Glc
# Method in brief: as §1
# [44] = molecular target: Gal(b1-4)GlcNAc(b1-3)Gal(b1-4)GlcNAc
# Method in brief: as §1
# [45] = molecular target: Gal(b1-4)GlcNAc(b1-3)Gal(b1-4)GlcNAc(b1-2)Man(a1-3)[Gal(b1-4)GlcNAc(b1-3)Gal(b1-4)GlcNAc(b1-2)Man(a1-6)]Man(b1-4)GlcNAc(b1-4)GlcNAc
# Method in brief: as §1
binder,measurement,setting,value
B1,glycan array binding signal (z-score),[1],-0.326
same,glycan array binding signal (z-score),[2],-0.182
same,glycan array binding signal (z-score),[3],0.373
same,glycan array binding signal (z-score),[4],-0.403
same,glycan array binding signal (z-score),[5],0.482
same,glycan array binding signal (z-score),[6],-0.411
same,glycan array binding signal (z-score),[7],-0.412
same,glycan array binding signal (z-score),[8],-0.523
same,glycan array binding signal (z-score),[9],-0.066
same,glycan array binding signal (z-score),[10],-0.234
same,glycan array binding signal (z-score),[11],-0.371
same,glycan array binding signal (z-score),[12],-0.353
same,glycan array binding signal (z-score),[13],-0.333
same,glycan array binding signal (z-score),[14],0.304
same,glycan array binding signal (z-score),[15],-0.514
same,glycan array binding signal (z-score),[16],-0.489
same,glycan array binding signal (z-score),[17],-0.482
same,glycan array binding signal (z-score),[18],1.84
same,glycan array binding signal (z-score),[19],-0.256
same,glycan array binding signal (z-score),[20],-0.511
same,glycan array binding signal (z-score),[21],-0.229
same,glycan array binding signal (z-score),[22],-0.436
same,glycan array binding signal (z-score),[23],-0.486
same,glycan array binding signal (z-score),[24],-0.242
same,glycan array binding signal (z-score),[25],-0.476
same,glycan array binding signal (z-score),[26],-0.533
same,glycan array binding signal (z-score),[27],-0.546
same,glycan array binding signal (z-score),[28],-0.484
same,glycan array binding signal (z-score),[29],-0.309
same,glycan array binding signal (z-score),[30],-0.418
same,glycan array binding signal (z-score),[31],-0.399
same,glycan array binding signal (z-score),[32],-0.356
same,glycan array binding signal (z-score),[33],-0.346
same,glycan array binding signal (z-score),[34],-0.546
same,glycan array binding signal (z-score),[35],-0.465
same,glycan array binding signal (z-score),[36],-0.343
same,glycan array binding signal (z-score),[37],-0.495
same,glycan array binding signal (z-score),[38],-0.39
same,glycan array binding signal (z-score),[39],-0.358
same,glycan array binding signal (z-score),[40],-0.523
same,glycan array binding signal (z-score),[41],-0.013
same,glycan array binding signal (z-score),[42],-0.453
same,glycan array binding signal (z-score),[43],-0.096
same,glycan array binding signal (z-score),[44],-0.426
same,glycan array binding signal (z-score),[45],1.04
